This note sets out measurements from PMC5892938.

Some of the results follow. The source does not settle which construct or isoform was used.

The assay addresses GST-SBP-ILF3 (Homo sapiens) (UniProt Q12906). Put plainly: targeted RNA Bind-n-Seq. To be noted: RBNS binding buffer: 25 mM Tris pH 7.5, 150 mM KCl, 3 mM MgCl2, 0.1% Tween, 0.5 mg/mL BSA, 1 mM DTT; 27 nM protein, 750 pM RNA pool; temperature not stated; high values mean tight binding; sequences stand for … in GGGUAAAAGCGAGGUGAA…CGGGACAAGUAUUAUGGG
As to “UUUUUUUUUUGAGAUGGCUACCAUCUCCAG [tttttgagapaired]”, the binding signal (log2 fold change) worked out at 0.427.

With “UUUUUUUUUUGAGACGGUAUCCGUCUUCUA [tttttgagapaired]”, the binding signal (log2 fold change) was found to be 0.163.

With “UUUUUUUUUUGAGAGCGAAGCGCUCUCCUG [tttttgagapaired]”, the binding signal (log2 fold change) came out at 0.28.

As for “UUUUUUUUUUGAGAACGAGUCGUUCUCCUA [tttttgagapaired]”, the binding signal (log2 fold change) is -0.0349.

“UUUUUUUUUUGAGAGCGUAGCGCUCUCCUA [tttttgagapaired]”: the binding signal (log2 fold change) was 0.379.

As for “UUUUUUUUUUGAGACGGGGACUGUCUCCUG [tttttgagapaired]”, the binding signal (log2 fold change) worked out at 1.02.

For “UUUUUUUUUUGAGACUGAGACAGUCUCCGG [tttttgagapaired]”, the binding signal (log2 fold change) came out at 0.313.

In the case of “GUGUGUGGUGUUGGAGUCUAACACCGCGCA [gtspaired]”, the binding signal (log2 fold change) is -0.791.

Consider “UUUUUUUUUUGAGAGGGGCUCCCUCUUCUG [tttttgagapaired]”, for which the binding signal (log2 fold change) is 0.719.

Consider “UUUUUUUUUUGAGAUGGCAUCCAUCUUCUG [tttttgagapaired]”, for which the binding signal (log2 fold change) was 0.256.

In the case of “UUUUUUUUUUGAGACUGGAGCAGUCUCCAG [tttttgagapaired]”, the binding signal (log2 fold change) came to 0.594.

As for “UUUUUUUUUUGAGAUGGAUGCCGUCUCCUA [tttttgagapaired]”, the binding signal (log2 fold change) turned out to be 0.517.

Take “UUUUUUUUUUGAGACGGAUUCCGUCUUCUG [tttttgagapaired]”: the binding signal (log2 fold change) was found to be 0.354.

Consider “UUUUUUUUUUGAGAGCGUAGCGUUCUCCUG [tttttgagapaired]”, for which the binding signal (log2 fold change) worked out at 0.616.

On to “GUGGUGUGUGUUGGCGCCUAACACACGCCG [gtspaired]”, for which the binding signal (log2 fold change) was -0.452.

Take “UUUUUUUUUUGAGAAGGCUUCCUUCUCCAG [tttttgagapaired]”: the binding signal (log2 fold change) amounted to 0.0835.

As for “UUCUUCUCUCCUCCAAGGGAGGGGGGAAGA [ctspaired]”, the binding signal (log2 fold change) was -0.357.

Take “UUUUUUUUUUGAGACUGAUGCAGUCUCCUA [tttttgagapaired]”: the binding signal (log2 fold change) turned out to be 0.428.

With “UUUUUUUUUUGAGACGGCCACCGUCUCCUG [tttttgagapaired]”, the binding signal (log2 fold change) stood at 0.824.

Consider “GGUUGGUGUGUUGGCUCCUAACACAUCGAC [gtspaired]”, for which the binding signal (log2 fold change) was -0.634.

In the case of “UUUUUUUUUUGAGAUCGAAACGGUCUCCGG [tttttgagapaired]”, the binding signal (log2 fold change) worked out at 0.221.

Turning to “GGUGUGUGUGUUGGACUCUAACACAUACGC [gtspaired]”, the binding signal (log2 fold change) was -1.25.

For the sequence “UUUUUUUUUUGAGACUGAAACAGUCUUCUG [tttttgagapaired]”, the binding signal (log2 fold change) turned out to be 0.334.

Consider “GUGUGUUGUGUUGGUACCUAACACAGCACA [gtspaired]”, for which the binding signal (log2 fold change) was -0.583.

Turning to “GUGUUGUGUGUUGGUACCUAACACACAGCA [gtspaired]”, the binding signal (log2 fold change) is -0.434.

Consider “GGUGGUGGUGUUGGCAUCUAACACCGCUAC [gtspaired]”, for which the binding signal (log2 fold change) was -0.762.

For the sequence “UUUUUUUUUUGAGAUGGCGCCCAUCUCCAG [tttttgagapaired]”, the binding signal (log2 fold change) was determined as 0.648.

Take “UUUUUUUUUUGAGACGGAAACCGUUUCCUG [tttttgagapaired]”: the binding signal (log2 fold change) stood at 0.419.

“UUUUUUUUUUGAGACCGGGGCGGUCUCCUA [tttttgagapaired]”: the binding signal (log2 fold change) amounted to 0.454.

Consider “UUUUUUUUUUGAGAGCGACGCGUUCUCCGG [tttttgagapaired]”, for which the binding signal (log2 fold change) worked out at 0.586.

For “UUUUUUUUUUGAGAGGGAUACCCUCUCCUA [tttttgagapaired]”, the binding signal (log2 fold change) amounted to 0.0921.

For “UUUUUUUUUUGAGAUGGACUCCAUUUCCGG [tttttgagapaired]”, the binding signal (log2 fold change) amounted to 0.234.

With “GUGUGGUGUGUUGGACUCUAACACACUACG [gtspaired]”, the binding signal (log2 fold change) is -0.981.

As for “UUUUUUUUUUGAGACCGGCACGGUCUCCAG [tttttgagapaired]”, the binding signal (log2 fold change) turned out to be 0.52.

For the sequence “GGUUGGUGUGUUGGCGUCUAACACACUAAC [gtspaired]”, the binding signal (log2 fold change) was -0.424.

In the case of “UUUUUUUUUUGAGACGGGAUCCGUCUCCUG [tttttgagapaired]”, the binding signal (log2 fold change) came to 0.403.

Take “UUUUUUUUUUGAGACGGAGGCCGUCUCCUG [tttttgagapaired]”: the binding signal (log2 fold change) worked out at 0.695.

For the sequence “UUUUUUUUUUGAGAGGGAAUCCUUCUCCUA [tttttgagapaired]”, the binding signal (log2 fold change) is -0.179.

For “UUUUUUUUUUGAGAUGGAGACUAUCUCCUA [tttttgagapaired]”, the binding signal (log2 fold change) came to 0.31.

Regarding “GUUGGUGGUGUUGGAGCCUAACACCACCAG [gtspaired]”, the binding signal (log2 fold change) is -0.558.

Regarding “UUUUUUUUUUGAGAACGAUGCGUUCUCCUA [tttttgagapaired]”, the binding signal (log2 fold change) was -0.00569.

In the case of “UUUUUUUUUUGAGAUGGAAGCCAUUUCCAG [tttttgagapaired]”, the binding signal (log2 fold change) amounted to 0.28.

On to “GUGUGUUGUGUUGGCACCUAACACAGCACA [gtspaired]”, for which the binding signal (log2 fold change) is -0.539.

For the sequence “GGUUGGUGUGUUGGAGCCUAACACAUCAGC [gtspaired]”, the binding signal (log2 fold change) was -0.813.

As to “GGUGUUGGUGUUGGUCCCUAACACCGAUAC [gtspaired]”, the binding signal (log2 fold change) was -0.441.

Take “UUUUUUUUUUGAGACCGGGACGGUUUCCUG [tttttgagapaired]”: the binding signal (log2 fold change) was found to be 0.751.

Consider “UUUUUUUUUUGAGAACGACGCGUUCUCCGG [tttttgagapaired]”, for which the binding signal (log2 fold change) worked out at 0.25.

As for “GUUGUGUGUGUUGGCGCCUAACACACACGA [gtspaired]”, the binding signal (log2 fold change) is -0.408.

On to “GUGUGUGGUGUUGGCCUCUAACACCACGCG [gtspaired]”, for which the binding signal (log2 fold change) was -0.758.

For “GGUUGUGGUGUUGGUCCCUAACACCAUAAC [gtspaired]”, the binding signal (log2 fold change) came out at 0.044.

As for “GUGUGGUGUGUUGGCACCUAACACAUCACA [gtspaired]”, the binding signal (log2 fold change) was -0.596.

As for “GUGGUUGGUGUUGGACCCUAACACCAGCCA [gtspaired]”, the binding signal (log2 fold change) was -0.442.

For “UUUUUUUUUUGAGACUGGACCAGUCUCCAG [tttttgagapaired]”, the binding signal (log2 fold change) amounted to 0.448.

With “UUUUUUUUUUGAGAGCGGUCCGCUCUCCUA [tttttgagapaired]”, the binding signal (log2 fold change) is 0.504.

With “UUUUUUUUUUGAGAUGGUGACCAUCUCCAG [tttttgagapaired]”, the binding signal (log2 fold change) was found to be 0.429.

In the case of “UUUUUUUUUUGAGAUGGCGUCCAUCUCCUA [tttttgagapaired]”, the binding signal (log2 fold change) is 0.482.

As for “UUUUUUUUUUGAGACCGAGUCGGUCUCCGG [tttttgagapaired]”, the binding signal (log2 fold change) was found to be 0.343.

Turning to “UUUUUUUUUUGAGAGGGAUCCCCUCUCCGG [tttttgagapaired]”, the binding signal (log2 fold change) stood at 0.336.

As to “UUUUUUUUUUGAGACUGAGUCAGUCUUCUA [tttttgagapaired]”, the binding signal (log2 fold change) was found to be 0.26.

As for “GUGUUGUGUGUUGGUAUCUAACACACAGCG [gtspaired]”, the binding signal (log2 fold change) was -0.668.

As for “UUUUUUUUUUGAGACUGUGGCAGUCUCCAG [tttttgagapaired]”, the binding signal (log2 fold change) worked out at 0.306.

“GGUGGUUGUGUUGGCCUCUAACACAGCUAC [gtspaired]”: the binding signal (log2 fold change) was -0.766.

As for “UUUUUUUUUUGAGACGGGGGCUGUCUCCUA [tttttgagapaired]”, the binding signal (log2 fold change) amounted to 0.975.

Regarding “UUUUUUUUUUGAGAGGGACGCCCUCUCCAG [tttttgagapaired]”, the binding signal (log2 fold change) is 0.662.

Consider “UUUUUUUUUUGAGAUGGAAACCAUCUCCAG [tttttgagapaired]”, for which the binding signal (log2 fold change) came out at 0.115.

On to “UUCUCUUCUCCUCCAUAGGAGGGGGAGGGA [ctspaired]”, for which the binding signal (log2 fold change) was -0.391.

Turning to “UUUUUUUUUUGAGACGGAUUCUGUCUCCUG [tttttgagapaired]”, the binding signal (log2 fold change) is 0.134.

Turning to “UUUUUUUUUUGAGACGGAAACUGUCUCCUG [tttttgagapaired]”, the binding signal (log2 fold change) was found to be 0.891.

With “UUUUUUUUUUGAGACGGUUCCCGUCUCCAG [tttttgagapaired]”, the binding signal (log2 fold change) is 0.823.

For “UUUUUUUUUUGAGACGGGGUCUGUCUCCAG [tttttgagapaired]”, the binding signal (log2 fold change) came to 0.874.

For the sequence “UUUUUUUUUUGAGACUGAUCCAGUCUCCUG [tttttgagapaired]”, the binding signal (log2 fold change) worked out at 0.405.

“UUUUUUUUUUGAGAGCGAGACGUUCUCCAG [tttttgagapaired]”: the binding signal (log2 fold change) was determined as 0.228.

As to “GUGUGUGGUGUUGGCUUCUAACACCGCACG [gtspaired]”, the binding signal (log2 fold change) is -0.708.

Regarding “GUGUGGUGUGUUGGCGCCUAACACACUAUA [gtspaired]”, the binding signal (log2 fold change) was -0.503.

Take “UUUUUUUUUUGAGAGUGUACCACUCUCCAG [tttttgagapaired]”: the binding signal (log2 fold change) was found to be 0.191.

As to “GUGUUGUGUGUUGGCUUCUAACACACAGCA [gtspaired]”, the binding signal (log2 fold change) is -0.694.

Turning to “UUUUUUUUUUGAGAGUGUAGCAUUCUCCUA [tttttgagapaired]”, the binding signal (log2 fold change) was 0.141.

As for “UUUUUUUUUUGAGAGGGUAGCCCUUUCCAG [tttttgagapaired]”, the binding signal (log2 fold change) stood at 0.38.

Take “UUUUUUUUUUGAGAACGGCGCGUUCUCCAG [tttttgagapaired]”: the binding signal (log2 fold change) amounted to 0.439.

On to “UUUUUUUUUUGAGACGGACACCGUCUUCUA [tttttgagapaired]”, for which the binding signal (log2 fold change) is -0.09.

As for “GUGUUGUGUGUUGGUCCCUAACACACAGCA [gtspaired]”, the binding signal (log2 fold change) is -0.471.

In the case of “GUUGUGUGUGUUGGCACCUAACACACGCGA [gtspaired]”, the binding signal (log2 fold change) was -0.62.

With “GUUGGUGGUGUUGGAUUCUAACACCAUCAA [gtspaired]”, the binding signal (log2 fold change) is -0.442.

Regarding “UUUUUUUUUUGAGACUGCGACAGUCUUCUG [tttttgagapaired]”, the binding signal (log2 fold change) is 0.625.

For “GGUGUGUGUGUUGGUCCCUAACACACGCGC [gtspaired]”, the binding signal (log2 fold change) was -0.421.

Turning to “UUUUUUUUUUGAGACGGAAACUGUCUCCAG [tttttgagapaired]”, the binding signal (log2 fold change) was 0.772.

For the sequence “UUUUUUUUUUGAGACUGGAGCAGUUUCCUA [tttttgagapaired]”, the binding signal (log2 fold change) turned out to be 0.59.

Consider “GUGGUGUGUGUUGGUAUCUAACACAUACCG [gtspaired]”, for which the binding signal (log2 fold change) was -0.218.

As to “UUUUUUUUUUGAGACCGCUGCGGUCUCCUA [tttttgagapaired]”, the binding signal (log2 fold change) came to 0.484.

On to “GUGUGGUGUGUUGGCGUCUAACACACCAUA [gtspaired]”, for which the binding signal (log2 fold change) was -0.149.

Take “UUUUUUUUUUGAGACUGGAUCAGUCUCCAG [tttttgagapaired]”: the binding signal (log2 fold change) came out at 0.0778.

“UUUUUUUUUUGAGAUGGGAACCAUCUCCUG [tttttgagapaired]”: the binding signal (log2 fold change) came out at 0.41.

For the sequence “UUUUUUUUUUGAGAGGGGAUCCCUCUCCGG [tttttgagapaired]”, the binding signal (log2 fold change) was 0.277.

Consider “UUUUUUUUUUGAGACGGAUUCUGUCUUCUA [tttttgagapaired]”, for which the binding signal (log2 fold change) is -0.242.

As to “UUUUUUUUUUGAGACGGCUACCGUUUCCAG [tttttgagapaired]”, the binding signal (log2 fold change) worked out at 0.642.

With “UUUUUUUUUUGAGAUGGGGUCCAUUUCCGG [tttttgagapaired]”, the binding signal (log2 fold change) was found to be 0.751.

Consider “UUUUUUUUUUGAGAGGGGGUCCCUCUCCAG [tttttgagapaired]”, for which the binding signal (log2 fold change) was determined as 0.814.

In the case of “UUUUUUUUUUGAGAUGGACGCUAUCUCCGG [tttttgagapaired]”, the binding signal (log2 fold change) turned out to be 0.568.

Take “UUUUUUUUUUGAGAACGGAACGUUCUCCGG [tttttgagapaired]”: the binding signal (log2 fold change) turned out to be 0.0282.

For the sequence “UUUUUUUUUUGAGAUGGUUGCCAUCUCCUA [tttttgagapaired]”, the binding signal (log2 fold change) is 0.327.

As to “UUUUUUUUUUGAGAACGAGGCGUUCUCCAG [tttttgagapaired]”, the binding signal (log2 fold change) amounted to 0.127.

As for “UUUUUUUUUUGAGAGCGUAUCGUUCUCCUA [tttttgagapaired]”, the binding signal (log2 fold change) stood at 0.117.
